Some of the results follow. Values were computed here from the reads of four pooled replicates and scatter widely.
biological target: T1, Pho4 (S. cerevisiae) (UniProt P07270); experiment: relative binding free energy (BET-seq); higher = weaker binding; conditions: reference: library average
T1 sequence: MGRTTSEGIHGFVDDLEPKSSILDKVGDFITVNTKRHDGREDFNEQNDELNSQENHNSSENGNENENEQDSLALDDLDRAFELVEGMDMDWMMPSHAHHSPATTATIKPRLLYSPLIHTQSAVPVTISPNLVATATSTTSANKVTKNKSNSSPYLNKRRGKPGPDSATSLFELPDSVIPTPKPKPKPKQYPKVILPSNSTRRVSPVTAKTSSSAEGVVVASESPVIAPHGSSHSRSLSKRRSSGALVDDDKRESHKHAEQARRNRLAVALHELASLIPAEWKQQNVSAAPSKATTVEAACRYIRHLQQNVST

Sequence	relative binding free energy [kcal/mol]
TTCGACACGTGGATGT	0.04
GACCGCACGTGTTGTG	0.05
AGTATCACGTGATTAT	0.18
TTAGGCACGTGGCGTG	-0.24
ACGTGCACGTGAGGGG	0.08
ATAGTCACGTGGTGTC	0.03
TATAACACGTGAGTGT	0.11
TTTACCACGTGATTAG	0.17
CATTTCACGTGTGGTC	0.29
TGTGTCACGTGAGGCG	0.3
GGGTTCACGTGCAGGC	0.22
GAGTGCACGTGAGTAA	0.23
AAAAACACGTGTTTTG	0.02
TTCTTCACGTGGCAGG	0.28
ATGGTCACGTGGGCGG	0.08
GGTTACACGTGATGGT	0.28
GTCTGCACGTGTAAGT	0.17
AATTTCACGTGCGTGG	0.21
GTGGGCACGTGGAGTA	-0.07
GGATACACGTGGCGGT	0.01
TCTTGCACGTGTGTGG	0.15

Sequence	relative binding free energy [kcal/mol]
CATTTCACGTGAGGAT	0.47
GTGCTCACGTGTACGT	0.36
GTTGACACGTGGTATC	0.07
TCAAACACGTGTTGGT	0
GAAAGCACGTGTTAGT	0.05
ATTATCACGTGGGAGT	0.05
TTGGACACGTGTCTGT	0.08
AGTATCACGTGGGCTA	0.02
CCGGTCACGTGGTGTT	0.01
TTAGTCACGTGATGAT	0.23
TCTGTCACGTGTAGTT	0.1
GGAGGCACGTGCGGCG	-0.26
TATAACACGTGGGGGT	-0.31
AGTGCCACGTGGATTG	-0.05
GGCTGCACGTGTGGAT	0.15
GTTTTCACGTGAATGG	0.42
GCTGTCACGTGAAGGT	0.34
GTACGCACGTGATTGG	-0.02
CGGGCCACGTGTGGGA	-0.02
AGCAACACGTGGGTGG	-0.18
GTTAACACGTGTAGAG	0.26

Sequence	relative binding free energy [kcal/mol]
GTGTTCACGTGGTAAG	0.33
GTTTGCACGTGTTCAA	0.08
TCTTACACGTGATGTG	0.11
TTAATCACGTGGGGTA	-0.12
TTGGCCACGTGAGGGC	0.13
ATTATCACGTGTAGGC	0.12
TCCTTCACGTGGTTGT	0.18
TTGTGCACGTGGGTAA	-0.09
CGTAACACGTGGTATG	0.02
TGGGTCACGTGCGTAC	0.04
CAGTACACGTGTTAGG	0.14
TAGTCCACGTGTTGAG	0.07
ACGATCACGTGGGTGT	-0.07
AAAGGCACGTGGCGGC	-0.09
GATTACACGTGGTTGC	0.27
TGCAGCACGTGAGGTT	0.23
GTGTCCACGTGTGAAG	0.19
ATGGGCACGTGTGGGC	-0.03
AGTGCCACGTGAAGGT	0.04
ACAGTCACGTGGTGGT	0.09
AGTTCCACGTGGGAAG	0.1

From the BET-seq Pho4 binding data (Le et al. 2018)
